# Results reported in the supplement of paper PMC4166925.
# ± gives the standard deviation of the averaged measurements. In all, about 33,000 sequences were measured (“E-score (dimensionless, -0.5 to 0.5)”: median about -0.046, highest 2% from about 0.36 on). The list shows a part of the results.
# System: T1, SpTbr T-box DNA-binding domain (GST fusion)
# T1 sequence: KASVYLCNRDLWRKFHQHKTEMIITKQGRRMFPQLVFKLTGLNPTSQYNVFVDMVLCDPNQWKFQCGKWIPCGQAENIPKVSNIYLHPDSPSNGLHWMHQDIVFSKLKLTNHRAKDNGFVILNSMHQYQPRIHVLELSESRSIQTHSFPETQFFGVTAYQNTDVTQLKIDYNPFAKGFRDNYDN
# Experiment: PBM E-score of 8-mer (E-score (dimensionless, -0.5 to 0.5)); Tbr is Tbrain of the sea star Patiria miniata (Pm) or the sea urchin Strongylocentrotus purpuratus (Sp); higher = stronger binding preference; most listed sequences are background and not binding sites
# Conditions: the construct has about 5 more residues each side
# Outline: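 Using the Universal PBM Analysis Suite, every ungapped 8-mer received an enrichment E-score averaged over duplicate arrays. Probe intensities came from double-stranded Universal Agilent oligonucleotide arrays incubated with 200 nM GST-fused Tbr T-box DNA-binding domain in PBS (pH 7.5). That protein was expressed in BL21 E. coli at 20 °C and purified by glutathione affinity chromatography.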
row,Sequence,PBM E-score of 8-mer
1,ACCTATCA,0.0614 ± 0.042
2,ACCTAGTA,0.0398 ± 0.046
3,AAGATAAG,-0.281 ± 0.022
4,TTCTGCAA,-0.186 ± 0.066
5,ATATGCTC,-0.0266 ± 0.015
6,ATACGCAT,-0.0848 ± 0.0017
7,CCTGGTCA,0.0238 ± 0.0064
8,AGATCGTG,0.0588 ± 0.023
9,AAGGCCCA,-0.0598 ± 0.008
10,CACGCATG,0.159 ± 0.012
11,AATCATCT,0.0537 ± 0.035
12,CCCCCAGC,-0.196 ± 0.012
13,CATACCGA,-0.184 ± 0.069
14,AGACCTGC,-0.0155 ± 0.0084
15,AACCGAAA,-0.221 ± 0.047
16,AAGACTTA,-0.0855 ± 0.021
17,AGTCTGCC,-0.314 ± 0.022
18,GGTCCCAA,-0.129 ± 0.072
19,CGACTGGA,-0.194 ± 0.051
20,AAGCAGGA,-0.141 ± 0.0083
21,CCATATGG,-0.265 ± 0.041
22,GGCCTTAA,-0.109 ± 0.056

row,Sequence,PBM E-score of 8-mer
1,TCTGCCAA,-0.106 ± 0.12
2,GGGCTGTA,-0.17 ± 0.011
3,TACCGGTA,-0.213 ± 0.083
4,AGACGATA,-0.0509 ± 0.047
5,AATGCGGA,-0.0358 ± 0.016
6,CTGAGTCA,-0.113 ± 0.031
7,AACCAAGT,0.0491 ± 0.025
8,ATGTGACC,0.169 ± 0.046
9,ATGAGAGA,-0.216 ± 0.018
10,CAGAGTGC,0.031 ± 0.031
11,AGCCTCTA,-0.0268 ± 0.03
12,CCCACCCC,0.182 ± 0.068
13,ACATCTTG,-0.0309 ± 0.0017
14,AGATATTC,-0.243 ± 0.033
15,AATAAACG,-0.164 ± 0.035
16,CATGTGTA,0.0692 ± 0.01
17,AGGCCAAG,-0.289 ± 0.015
18,AGGAGCAC,-0.301 ± 0.059
19,AACAGGGA,-0.271 ± 0.009
20,CGAATGCA,-0.0822 ± 0.032
21,GTTTACAA,0.104 ± 0.051
22,CTCATTAC,-0.119 ± 0.0035

row,Sequence,PBM E-score of 8-mer
1,TCCGCCAA,0.00811 ± 0.035
2,GGCATGCA,-0.0539 ± 0.017
3,ACGGCCTC,-0.0312 ± 0.028
4,ACTTGCTG,-0.0473 ± 0.073
5,AACCCTAC,0.0156 ± 0.011
6,ATGGACCC,-0.185 ± 0.015
7,ATTATACG,-0.105 ± 0.025
8,GGCTCGTA,-0.2 ± 0.0094
9,CCAGACAA,-0.178 ± 0.023
10,TACTACGA,0.0144 ± 0.01
11,TAACCCGA,-0.134 ± 0.037
12,TCCTCTAA,-0.247 ± 0.059
13,TAGGGTGA,0.0372 ± 0.046
14,CTACCCTA,0.064 ± 0.011
15,CTGAAGAC,0.0449 ± 0.039
16,CCGAGTAA,-0.121 ± 0.03
17,GGTCACAC,0.46 ± 0.013
18,ACGACTTA,0.0982 ± 0.025
19,GACTGCAC,-0.171 ± 0.027
20,AAGGGATC,-0.0948 ± 0.076
21,CGGAGATA,0.0372 ± 0.0019
22,AGGAGCTA,-0.1076 ± 0.00074

row,Sequence,PBM E-score of 8-mer
1,AGTCCAGA,-0.161 ± 0.024
2,ATCCCGTA,-0.0249 ± 0.063
3,CAGCACCG,0.0405 ± 0.025
4,ACAAATAC,0.00549 ± 0.1
5,ATCGGGAC,-0.213 ± 0.022
6,CGTCTCCA,-0.21 ± 0.017
7,CGCAAATA,-0.00213 ± 0.081
8,CCCTCACC,0.245 ± 0.049
9,GGGCGTCA,0.376 ± 0.017
10,GCCGCCAA,0.197 ± 0.016
11,GATTTCAC,0.332 ± 0.023
12,ACGAAATC,0.034 ± 0.072
13,GAACATGC,-0.0884 ± 0.025
14,CAATCGCC,0.016 ± 0.078
15,AGCGATCG,0.0673 ± 0.027
16,ATCAGCAC,0.222 ± 0.051
17,AATTCAAT,-0.13 ± 0.03
18,AGTCGAAC,-0.0231 ± 0.03
19,ACCCAATA,-0.101 ± 0.017
20,AGCGCTGC,-0.00503 ± 0.035
21,CAACACAA,0.172 ± 0.046
22,ATAACATG,0.0164 ± 0.08

row,Sequence,PBM E-score of 8-mer
1,GCGCGGCC,0.0312 ± 0.075
2,ACGCCCTG,0.1 ± 0.043
3,CATGCGCA,0.0447 ± 0.0094
4,AATGGGCT,-0.0148 ± 0.1
5,TGGGGTAA,-0.1604 ± 0.001
6,CCGACGCA,-0.12 ± 0.091
7,AACCGGAA,-0.0908 ± 0.02
8,AAGAGGGG,-0.0371 ± 0.042
9,CCGCGTCG,-0.113 ± 0.076
10,GCTTTAAA,-0.0638 ± 0.0097
11,GATAATAC,-0.18 ± 0.095
12,ATACATAT,0.00895 ± 0.052
13,AATGTAAG,-0.0885 ± 0.01
14,ACGCAGGA,-0.197 ± 0.052
15,AGAGGGCA,-0.0956 ± 0.073
16,GCGCCCAC,0.238 ± 0.098
17,ACGAAACT,0.133 ± 0.0054
18,ATTCGTCC,-0.226 ± 0.013
19,ATATACGA,-0.294 ± 0.066
20,CGCAGCGC,0.0713 ± 0.046
21,ATAGCGAC,0.191 ± 0.0099
22,ACATGTCT,0.117 ± 0.05
